The source gives no read counts; variants with many changes may rest on few reads.
B1: CPEB3 Ribozyme (parent)
chain: UAACAGGGGGCCACAGCAGAAGCGUUCACGUCGCAGCCCCUGUCAGAUUCUGGUGAAUCUGCGAAUUCUGCUGUAUAUCUC

Variants of: B1
Assay: self-cleavage, relative activity (ratio to wild type); higher = more cleavage; in vitro, sequencing
Summary of the method: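 After error-prone PCR and barcoding, CPEB3 ribozyme mutant libraries were transcribed with T7 RNA polymerase at 37°C for 5 hours, then given 15 min with DNase I before an EDTA stop, and they cleaved during both steps. Reverse transcription with template switching preceded Illumina sequencing. Relative activity divides a variant's cleaved/total read fraction by the unmutated ribozyme's. At least 5 reads were required per variant, and three batches were averaged.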

Variant	self-cleavage
G6C C14A A15G A56U	0.08
G6C C23G C32A U41A U66C	0.18
G6C G7A A35G U67C U69C C71U	0.05
G6C G7A U31G U49A U54G A77U	0.2
G6C G8C G9A G10C A28G A35U U54C	0.34
G6C G9C C40U U66C U78C	0.11
G6C G9U A28G A77U	0.53
G6C G19C A45G A57G	0.41
G6C G22A U26A A35G A56U	0.05
G6C G42A U51C C62U	0.53
G6C U25A U26C C27U A45C U66C U69A	0.07
G6C U25A U48A C62U	0.33
G6C U25C C29U C68A U74C	0.24
G6C U25C U26A U31C A47G U80C	0.21
G6C U25C U48C U74C	0.07
G6C U25C U60C U72A	0.16
G6C U25C U67C	0.26
G6C U41C U67C	0.15
G6C U49A U74C U78A	0.63
G6C U49C U67C	0.27
G6C U51C U66C	0.25

Variant	self-cleavage
G6U A13G A35G U41C A56G U60C	0.13
G6U A13G U49A U51A U80C	0.08
G6U A15G A18C A21G A64G U78A	0.04
G6U A15G A35G U60C	0.58
G6U A15G A77U	0.13
G6U A15G C17G A28C U76C	0.42
G6U A15G C17G A65G U66C	0.03
G6U A15G C17G U26A G36A U41A	0.05
G6U A15G U41C G55A G70C U74C	0.07
G6U A15G U76A	0.44
G6U A15U A18G U26A U80C	0.06
G6U A15U C32G C37A U67C U72C	0.03
G6U A15U U26A A64G U67C	0.22
G6U A15U U67A	0.06
G6U A18G A35U	0.16
G6U A18G C23G U25C U54C U78C	0.06
G6U A18G C71G U78C	0.08
G6U A18G U80C	0.39
G6U A18U A35U U60C	0.07
G6U A18U U26C	0.09
G6U A20G A57G	0.39

Variant	self-cleavage
G6U A20G A64U U69G	0.08
G6U A20G U43C U72C U80C	0.29
G6U A20G U54C A64G U67A	0.37
G6U A20U A21G G46U A57U U72C U80C	0.04
G6U A20U A57G	0.16
G6U A20U U26C U54C	0.26
G6U A21C U80C	0.09
G6U A21G U48C A56G U60C A64G U69C	0.07
G6U A21U A45G	0.06
G6U A28G A47U C62A	0.18
G6U A28G G33U U66A U72G U78C	0.06
G6U A28G U51C A64G U72C	0.09
G6U A28U U48C	0.1
G6U A35G A65G	0.18
G6U A35U U41C	0.19
G6U A45U U60C	0.07
G6U A47G U48C	0.05
G6U A47G U51C U66C	0.04
G6U A47G U60A U80C	0.09
G6U A56G A65G	0.18
G6U A56U A57G A64G	0.07

Variant	self-cleavage
G6U A57C A64G U66A	0.04
G6U A64G U69C	0.17
G6U A64G U76C	0.31
G6U A75G U78C	0.22
G6U C11U C71G	0.04
G6U C17U C71A	0.18
G6U C17U G24A U51C	0.19
G6U C17U U25A A64U	0.04
G6U C23A G30U U31C C40A	0.12
G6U C23G G30A A35G A45U A57G U80C	0.03
G6U C32U U49A	0.07
G6U G8A C23U U41C U48C U51A	0.05
G6U G8A U74G U76A	0.05
G6U G8U A20G A21G U80C	0.41
G6U G9A C12U C38G U49C G52A G73C	0.05
G6U G9U A20G U41A	0.06
G6U G9U A20G U66A U72C	0.05
G6U G9U U51A	0.22
G6U G10A U26C A28G A45G G46A	0.06
G6U G22U U41C A47G U69C	0.07

From the RNAGym collection of RNA variant scans (doi:10.1093/nar/gkz1192)
